# Data reported in PMC4336329 (PLoS ONE, 2015).
# Screen size: about 310,000 compounds; about 2,200 (0.71%) showed an effect of 50% or more. Effects have a minus sign here. The list shows a part of the results.
# Target: human ether-à-go-go-related gene (hERG) potassium channel (human, UniProt Q12809)
# Assay: primary screen, population patch clamp on CHO cells stably expressing hERG
# Chain of human ether-à-go-go-related gene (hERG) potassium channel (Q12809 whole entry, looked up): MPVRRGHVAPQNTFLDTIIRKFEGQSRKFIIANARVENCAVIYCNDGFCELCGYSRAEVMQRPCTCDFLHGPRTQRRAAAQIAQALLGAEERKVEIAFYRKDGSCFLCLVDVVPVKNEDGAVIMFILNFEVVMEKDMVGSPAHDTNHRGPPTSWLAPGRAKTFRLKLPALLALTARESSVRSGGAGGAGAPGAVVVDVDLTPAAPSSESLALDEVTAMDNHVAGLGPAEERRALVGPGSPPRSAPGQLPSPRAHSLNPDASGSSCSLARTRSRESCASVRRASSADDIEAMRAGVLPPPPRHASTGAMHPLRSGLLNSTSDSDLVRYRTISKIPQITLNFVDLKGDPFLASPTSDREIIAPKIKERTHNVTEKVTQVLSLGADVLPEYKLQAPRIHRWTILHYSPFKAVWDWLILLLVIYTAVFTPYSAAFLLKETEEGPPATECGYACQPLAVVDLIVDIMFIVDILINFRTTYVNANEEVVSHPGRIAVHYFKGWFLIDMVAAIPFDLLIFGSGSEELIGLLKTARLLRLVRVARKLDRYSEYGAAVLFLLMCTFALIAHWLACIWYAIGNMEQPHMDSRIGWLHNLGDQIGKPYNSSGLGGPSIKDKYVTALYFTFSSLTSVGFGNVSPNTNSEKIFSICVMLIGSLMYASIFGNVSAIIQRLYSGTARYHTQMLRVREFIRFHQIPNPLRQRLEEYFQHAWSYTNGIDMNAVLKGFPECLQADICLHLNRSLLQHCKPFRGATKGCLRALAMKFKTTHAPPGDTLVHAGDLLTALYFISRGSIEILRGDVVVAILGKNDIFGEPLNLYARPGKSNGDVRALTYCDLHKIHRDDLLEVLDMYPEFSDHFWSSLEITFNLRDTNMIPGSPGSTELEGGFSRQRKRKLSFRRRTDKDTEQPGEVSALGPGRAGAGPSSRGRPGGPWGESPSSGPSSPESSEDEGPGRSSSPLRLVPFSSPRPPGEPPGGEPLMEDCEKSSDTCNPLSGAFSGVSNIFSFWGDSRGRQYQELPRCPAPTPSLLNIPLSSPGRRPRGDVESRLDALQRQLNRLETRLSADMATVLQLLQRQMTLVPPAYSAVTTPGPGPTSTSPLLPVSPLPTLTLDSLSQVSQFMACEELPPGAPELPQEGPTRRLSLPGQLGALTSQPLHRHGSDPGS
row,SMILES,"hERG current change (%, negative = inhibition) at 1uM"
1,Cc1ccc(S(=O)(=O)N(Cc2ccc(C(F)(F)F)cc2)C(=O)N2CCN(C)CC2)cc1,13%
2,O=C(CNC(=O)C1CCCCC1)Nc1ccc(F)c(Cl)c1,-0.579%
3,COc1ccc(C(=O)NCC(c2ccco2)N2CCc3ccccc32)c(OC)c1 (stereo not drawn),3.02%
4,C=CCN=C1CC(C)(C)C(C(=O)OC)C(O)=C1C(=O)CCC (stereo not drawn),11.6%
5,c1coc(-c2nc3c([nH]2)CCc2nonc2-3)c1,15.2%
6,CCc1cc2cccc(C)c2nc1SCC(=O)NNC(=O)c1ccco1,-0.11%
7,CCCCc1nnc(NC(=O)C=C(C)C)s1,11.7%
8,O=C(CCN1C(=O)COc2ccccc21)N1CCC2(CC1)OCCO2,3.41%
9,CNCC(O)COc1cccc(OC)c1 (stereo not drawn),6.57%
10,COC(=O)C(=Cc1ccccc1[N+](=O)[O-])C(=O)OC,14.2%
11,NC(=O)C1(NC(=O)[C@@H]2CC3(CC(c4cccc(NC(=O)[C@@H]5CCC(=O)N5)c4)=NO3)CN2C(=O)c2ccccc2)CC1 (stereo partly drawn),9.88%
12,Cl.O=S(=O)(NCC(c1ccco1)N1CCCCC1)c1cccc(C(F)(F)F)c1 (stereo not drawn),7.94%
13,CCOC(=O)C(C(=O)NCc1ccc(C)cc1)c1ncc(C(F)(F)F)cc1Cl (stereo not drawn),8.93%
14,COc1cccc(-c2cccc(NC(=O)C3CCN(Cc4nccs4)CC3)c2)c1,3.89%
15,Fc1ccccc1N1CC(c2ccccc2)C(c2cccs2)=N1 (stereo not drawn),7.54%
16,Cc1cc(C)c(S(=O)(=O)NCc2cn3c(C)csc3n2)c(C)c1,18.5%
17,CCN1CCCC1CNS(=O)(=O)c1c(C)cc(C)cc1C.Cl (stereo not drawn),2.79%
18,COc1ccc(NS(=O)(=O)c2ccc(Oc3ncccn3)cc2)cc1,11%
19,COc1ccccc1NS(=O)(=O)c1cccc(C(=O)N(C)Cc2cccs2)c1,1.89%
20,O=C(c1cc(-c2ccncc2)nc2ccc(Br)cc12)N1CCN(c2ccccn2)CC1,-9.18%
21,COc1ccccc1N1CCN(C(=O)C(=O)c2cn(CC(=O)N3CCCC3)c3ccccc23)CC1,9.68%
22,CC(=O)NS(=O)(=O)c1ccc(NC(=S)NC(=O)c2ccco2)cc1,5.06%
23,O=C1N/C(=C/c2cccn2-c2ccccc2)C(=O)N1Cc1ccccc1F,8.52%

row,SMILES,"hERG current change (%, negative = inhibition) at 1uM"
1,CCn1cc(C(=O)OCC(=O)Nc2cccc(C)c2)c(=O)c2ccc(C)nc21,12.7%
2,COc1cccc(/C=N/NC(=O)C(C)Sc2ccccc2)c1 (stereo not drawn),11.1%
3,CN(C(=O)CSc1nnc(NC2CCCCC2)s1)C1CCS(=O)(=O)C1 (stereo not drawn),7.89%
4,CCn1c(-c2ccc(N)cc2)nc2ccccc21,17.3%
5,CCN(CC)S(=O)(=O)c1ccc(NC(=O)C(C)N(c2ccc(OC)cc2)S(C)(=O)=O)cc1 (stereo not drawn),3.34%
6,Cc1cc(Cl)ccc1NC(=S)NCCC(c1ccccc1)c1ccccc1,12.8%
7,Cc1ccc(/C=N/n2c(C)cc(C)c(C#N)c2=O)o1,10.2%
8,Cc1ccc(CNC(=O)CCCn2c(=O)c3ccccc3n(CC(=O)NC3CCCC3)c2=O)cc1,3.03%
9,O=C(Nc1ccccc1C(=O)N1CCOCC1)C1CCC(=O)N1C1CCCC1 (stereo not drawn),19.1%
10,COc1ccc(-c2cccc(NC(=O)c3ccco3)c2)nn1,15.7%
11,CC(=O)N1c2ccccc2NC2=C(C(=O)CCC2)C1c1cccnc1 (stereo not drawn),5.36%
12,O=C(Nc1ccc(-c2csc(Nc3ccccc3)n2)cc1)c1cccc(C(F)(F)F)c1,13.8%
13,O=S(=O)(c1ccccc1)N1CCN(c2nnc(-c3ccccc3)c3ccccc23)CC1,2.37%
14,COCCNC(=O)c1ccccc1NC(=O)Cc1ccccc1,4.94%
15,Cc1ccc(S(=O)(=O)N2CCN(C)CC2)cc1C(=O)NC1CCCCC1,0.22%
16,Cc1cc(C)cc(NC(=O)CSc2nc3[nH]c(=O)cc(O)c3s2)c1,13%
17,COC(=O)C1CCN(C(=O)COC(=O)CNC(=O)c2ccc(Cl)cc2Cl)CC1,-0.261%
18,CSc1ncc(C(=O)Nc2cccc(Cl)c2C)c(C)n1,9.23%
19,O=C(NNC(=O)C1CCN(S(=O)(=O)c2ccc(Cl)cc2)CC1)c1ccc(Cl)cc1,4.45%
20,Cc1nc(-c2cccnc2)sc1C(=O)Nc1ccc(Cl)cc1,8.8%
21,Cc1cccc(CC(=O)NCC(=O)NCc2cc(=O)n(C)c(=O)n2C)c1,15.9%
22,CC/C(=C\C(=O)c1ccncc1)Nc1ccc(O)cc1,-0.704%
23,CCC(=O)OCc1cc2cccc(C)c2[nH]c1=O,6.42%

row,SMILES,"hERG current change (%, negative = inhibition) at 1uM"
1,Cc1ccc(F)c(C2C3C=CCC(c4cccc(-c5ccc(N(C)C)cc5)c4)C3C(=O)N2Cc2ccccc2)c1 (stereo not drawn),11.5%
2,O=C(CCc1ccccc1)Nc1ccccc1[N+](=O)[O-],6.5%
3,CC1Cc2cc(S(=O)(=O)CCC(=O)NCc3ccco3)ccc2N1C(=O)C1CC1 (stereo not drawn),15.3%
4,CC(NS(=O)(=O)c1ccc(Cl)c(Cl)c1)C(=O)OCC(=O)Nc1ccc2c(c1)OCO2 (stereo not drawn),17.2%
5,COC(=O)c1ccc(COc2ccc(C(=O)c3ccccc3)cc2)o1,8.37%
6,On1c(-c2ccc(Cl)cc2Cl)nc2ncccc21,10.9%
7,COc1ccc(NC(=O)CN(C)C(=O)c2cc3c(s2)CCC3)cc1,2.68%
8,COc1ccccc1N1CCN(C(=O)CCc2ccccc2)CC1,14.6%
9,COC(=O)c1ccc(Nc2nc(N3CCOCC3)nc(N3CCOCC3)n2)cc1.Cl,6.18%
10,COc1ccc(Cc2nnc(Nc3ccc4c(c3)OCCO4)[nH]c2=O)cc1,12.9%
11,CN(C)CCOc1cc(Cl)cc(Cl)c1,6.47%
12,C/C(=N\NC(=O)c1[nH]c2c([N+](=O)[O-])cc(C)cc2c1-c1ccccc1)c1cccnc1,11.8%
13,CC1CCN(Cc2nc(-c3ccc(Cl)cc3)no2)CC1,9.77%
14,C=CCOc1cc(C)nc(-c2ccccc2O)n1,0.0391%
15,CC(C)CCNC(=O)CN(CC1CCCO1)C(=O)CCC(=O)Nc1ccccn1 (stereo not drawn),2.16%
16,C/C(CC(=O)Nc1ccc(N(C)C)cc1)=N\NC(=O)c1ccccc1O,14.9%
17,CCOC(=O)Cc1csc(NC(=O)c2ccc(N3CCOCC3)cc2[N+](=O)[O-])n1,3.6%
18,CC(CN1CCCCC1)OC(=O)/C=C/c1ccccc1.Cl (stereo not drawn),-43.6%
19,Cn1nc(-c2ccc(Cl)cc2)nc2c(=O)n(C)c(=O)nc1-2,-4.03%
20,O=C(NCc1ccc2c(c1)OCO2)c1cccnc1,12.8%
21,Cc1csc(SCC(=O)NC(=O)C2CCCCC2)n1,19.2%
22,Cc1ccc2c(c1)N(C)/C(=C/c1cccc[n+]1C)S2.[I-],-16.2%
23,O=C(O)C1=CC[C@@H](c2ccc(Cl)cc2)N(S(=O)(=O)c2ccc(Cl)cc2)[C@H]1c1ccc(F)cc1,11.4%

row,SMILES,"hERG current change (%, negative = inhibition) at 1uM"
1,Cc1cc(C)cc(C(=O)N2CCN(c3ccccn3)CC2)c1,9.08%
2,CC(C)Cn1c(=O)c(-[n+]2ccccc2)c([O-])c2ccccc21,-3.91%
3,OC(CN1C2=NCCN2c2ccccc21)c1ccc(Br)cc1 (stereo not drawn),-63%
4,CC(C)c1ccc(/C=C/C(=O)NCCC2=CCCCC2)cc1,5.19%
5,C=CCOc1ccccc1CN1CCC(Oc2cc(C(=O)NC3CC3)ccc2OC)CC1,-66.6%
6,CCn1c(COc2ccccc2C)nnc1SCc1nc2ccccc2c(=O)[nH]1,10.1%
7,Cn1c(=O)cc(N)n(-c2ccccc2)c1=O,9.32%
8,COc1ccccc1/C=C/C=N/n1c(-c2cc(C)[nH]n2)n[nH]c1=S,18.7%
9,Cc1ccc(C(=O)OCC(=O)Nc2ccc3c(c2)OCO3)c(O)c1,5.93%
10,COc1cccc(/C(N)=N/OC(=O)Cc2ccccc2[N+](=O)[O-])c1,7.37%
11,COc1ccc(CN(CC2CCC(C(=O)O)CC2)C(=S)Nc2ccccc2OC)cc1 (stereo not drawn),13.4%
12,CCN(CC)c1ncnc2c1[nH]c1ccccc12,-8.73%
13,O=C(NC1CCc2ccccc21)C1CCN(S(=O)(=O)c2ccc(Cl)cc2)CC1 (stereo not drawn),8.36%
14,CCOC(=O)Cc1c(C)nc2c(-c3ccc(Cl)cc3)c(C)[nH]n2c1=O,10.9%
15,O=C(NNC(=S)NCCc1ccccc1)c1ccc(Br)s1,4.11%
16,CC(NC(=O)NC1CCCCC1)c1ccccc1 (stereo not drawn),6.96%
17,CC(C)N(Cc1ccccc1)C(=S)Nc1ccc(F)cc1,2.98%
18,O=C(CNC(=O)c1ccc2ccccc2c1)NCc1ccccc1F,0.73%
19,Cn1c(CCC(=O)Nc2ccc(N3CCOCC3)cc2)nc(=O)c2ccccc21,15.8%
20,O=C(COC(=O)c1cnccn1)Nc1ccc(Cl)cn1,26.4%
21,CC(=O)NC(CC(=O)NC1CCCc2ccccc21)c1ccccc1 (stereo not drawn),11.3%
